Laboratory results as given in PubChem BioAssay AID504466 (National Center for Advancing Translational Sciences (NCATS), 2011).
The campaign covered roughly 330,000 compounds. About 4,200 (1.3%) were called active. The inconclusive results got no clear call from the source; some entries with a clear call stand among them for comparison. The call rests on the fitted dose curve; in most records, active means well fitted activation curve with a large enough effect; inconclusive means small, poorly fitted or top-dose-only effect; inactive means no such curve, though single readings can be large or run the other way. A potency beside an inconclusive call is a rough fit, not a confirmed value.

Test: qHTS screen for small molecules that induce genotoxicity in human embryonic kidney (HEK293T) cells expressing luciferase-tagged ELG1; further: nearly all actives have a fitted effect of over 60% in size; on activity change, positive = activation: % of control where 0% means no effect
Conditions: HEK293T ELG1-luciferase reporter, luminescence, 16 h; series mostly up to 46 µM; activity change, positive = activation: at the top concentration
Outline: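 After overnight (16 hr) compound treatment at 37 °C, ELG1-luciferase HEK293T cells were lysed with ONE-Glo; luminescence quantified 30 min later at room temperature.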
Potency means the concentration at half of the fitted maximal effect; tags describe the fitted curve by direction and shape.

| SMILES | activity change, positive = activation | Potency |
| --- | --- | --- |
| CCn1c(O)c(C(=O)CC2NCCc3ccccc32)c(=O)n(CC)c1=S (stereo not drawn) | inactive: -3.61% |  |
| COc1cc2c(c(OC)c1OC)-c1ccc(O)c(=O)cc1C(NC(C)=O)CC2 (stereo not drawn) |  | inconclusive: 1.83 µM [activator, partial curve] |
| Cc1ccc(CSc2ncccc2C(=O)O)cc1 |  | inconclusive: 29.1 µM [activator, single point] |
| Cc1ccc(N/N=C/c2c(O)n(-c3ccccc3)c(=O)[nH]c2=O)cc1 |  | inconclusive: 29.1 µM [activator, single point] |
| O=C(COc1ccccc1)N1CCN(CCN2C(=O)c3cccc4cccc(c34)C2=O)CC1 | inactive: -5.79% |  |
| Nc1ccccc1C(=O)OCc1ccc([N+](=O)[O-])cc1 |  | inconclusive: 20.6 µM [activator, partial curve, poor fit] |
| NC(N)=Nc1ccc2[nH]c3c(c2c1)C[C@@]1(O)[C@H]2Cc4ccc(O)c5c4[C@@]1(CCN2CC1CC1)[C@H]3O5 |  | inconclusive: 25.9 µM [activator, partial curve, poor fit] |
| Cc1ccc(NN=C2C(=O)OC(C)(C)OC2=O)c(C)c1 |  | inconclusive: 16.4 µM [activator, single point] |
| COC(=O)C1=C(c2ccc(F)cc2OCc2ccccc2)C[C@@H]2CC[C@H]1N2C(=O)NCCN1CCOCC1 | inactive: -0.64% |  |
| Cc1cc2ccccc2n1CCNC(=O)Cc1ccccc1 |  | inconclusive: 29.1 µM [activator, single point] |
| O=c1[nH]c(=O)n(CCc2ccc(F)cc2)c(O)c1/C=N/N1CCCCC1 |  | inconclusive: 25.9 µM [activator, partial curve, poor fit] |
| Cc1ccc(/C=C2/C(=O)NC(=O)N(CCc3ccc(F)cc3)C2=O)s1 |  | inconclusive: 32.6 µM [activator, partial curve, poor fit] |
| O=C(Nc1ccccc1)c1cccn(Cc2ccccc2)c1=O |  | inconclusive: 29.1 µM [activator, partial curve, poor fit] |
| Clc1ccccc1Nc1ncnc(-n2cccc2)n1 |  | inconclusive: 7.31 µM [activator, partial curve] |
| O=C(Cc1c(Cl)cccc1Cl)N1CCN(Cc2ccccc2)CC1 | inactive: -2.44% |  |
| Cc1nc2cc(C(F)(F)F)ccc2n1C1CCN(Cc2nnnn2Cc2ccc3c(c2)OCO3)CC1 | inactive: -31.9% |  |
| O=c1[nH]c(=O)n(-c2ccccc2)c(O)c1/C=C1/C(c2ccccc2)=Nc2ccccc21 |  | inconclusive: 32.6 µM [activator, partial curve, poor fit] |
| CC1CN=C(NCc2ccccc2)S1 (stereo not drawn) | inactive: 2.64% |  |
| O=c1[nH]c(=O)n(Cc2ccc(F)cc2)c(O)c1/C=N/Nc1ccccc1 | inactive: 4.56% |  |
| Cc1ccc2c(c1N)C(=O)c1ccccc1C2=O |  | inconclusive: 18.3 µM [activator, partial curve] |
| COC1=CC(=O)O[C@@H](/C=C/c2ccccc2)C1 |  | inconclusive: 20.6 µM [activator, partial curve, poor fit] |
| Cc1ccc2nc3c(cc2c1)CC1(C(=O)N(C)C(=O)N(C)C1=O)C1COCCN31 (stereo not drawn) |  | inconclusive: 11.6 µM [activator, partial curve, poor fit] |

| SMILES | activity change, positive = activation | Potency |
| --- | --- | --- |
| COc1ccc(OC)c(N=Cc2c(O)n(Cc3ccccc3)c(=S)[nH]c2=O)c1 | inactive: -6.39% |  |
| COc1ccc(-c2cc(=NCCCCCC(=O)O)c3cc(C)ccc3o2)cc1 |  | inconclusive: 20.6 µM [activator, partial curve, poor fit] |
| Cc1ccnc(-n2c(C)cc(/C=C3\C(=O)NC(=S)N(C)C3=O)c2C)c1 |  | inconclusive: 29.1 µM [activator, single point] |
| CN(C)c1ccc2c(c1)N=C(c1ccco1)OP2(=S)N1CCOCC1 (stereo not drawn) |  | inconclusive: 18.4 µM [activator, partial curve, poor fit] |
| O=C1NC(=O)N(c2ccc3c(c2)OCO3)C(=O)/C1=C/c1ccsc1 | inactive: 3% |  |
| CC(=O)O[C@H]1CC[C@@]2(C)C(=CC[C@@H]3[C@@H]2CC[C@]2(C)C(=O)CC[C@@H]32)C1 |  | inconclusive: 23.1 µM [activator, partial curve, poor fit] |
| Cc1ccc(/C=C2/C(=O)NC(=O)N(CCc3ccc(F)cc3)C2=O)o1 |  | inconclusive: 16.4 µM [activator, partial curve, poor fit] |
| Nc1ccc2c(c1)Cc1cc([N+](=O)[O-])ccc1-2 |  | inconclusive: 18.3 µM [activator, partial curve, poor fit] |
| CNC(=O)Oc1ccc(-c2cn3cc(Cl)ccc3n2)cc1 |  | inconclusive: 2.06 µM [activator, full curve] |
| CCCOC1CCCN(C(=O)CCc2nnc(Cc3cccc(C)c3)o2)C1 (stereo not drawn) |  | inconclusive: 16.4 µM [activator, partial curve, poor fit] |
| Cc1ccc2cc(C=C(C#N)C#N)c(Cl)nc2c1 |  | inconclusive: 23.1 µM [activator, partial curve, poor fit] |
| O=c1[nH]c(=O)n(CC2CCCO2)c(O)c1/C=C1\C=Nc2ccccc21 (stereo not drawn) |  | inactive |
| CN(C)C=C1C(=O)N(C2CCCCC2)C(=O)N(C2CCCCC2)C1=O | inactive: -12% |  |
| CC(C)c1ccc(N=Cc2c(O)n(C3CC3)c(=S)[nH]c2=O)cc1 |  | inconclusive: 18.3 µM [activator, single point] |
| CCN(CC)C(=O)c1ccc(NC(=O)Nc2ccccc2F)cc1 |  | inconclusive: 1.03 µM [activator, partial curve] |
| Cc1nc2ccc(NC(=O)c3ccc(Cl)s3)cc2s1 |  | active: 9.2 µM |
| CC1=NN(c2ccccc2)C(=O)C1/C=C1/C(=O)NC(=O)N(c2cc(C)cc(C)c2)C1=O (stereo not drawn) | inactive: -1.26% |  |
| CCN(CC)c1ccc(/C=C2\C(=O)NC(=S)N(C)C2=O)o1 |  | active: 20.6 µM |
| CCC(C)NC(=O)c1c(N)n(CCCOC)c2nc3ccccc3nc12 (stereo not drawn) | inactive: -2.3% |  |
| Nc1nc(N)nc(-c2ccc(Oc3ccccc3)cc2)n1 |  | inconclusive: 23.1 µM [activator, partial curve, poor fit] |
| Cc1ccc2c(c1)c(C1=c3ccccc3=NC1=O)c(O)n2C |  | inconclusive: 17.8 µM [activator, single point] |
